Assay results as given in a collection of fitness landscapes (doi:10.1016/j.celrep.2020.107928).
Whole data set: some 81,000 sequences, median “one-hybrid fitness for binding parS DNA” near -0.17, cut for the highest 2% near 0.51. The list shows a part of the results.

B1: Caulobacter ParB omega fusion; a variant is named by its letters at X, in order, B8GW30 (parent)
chain: MESVVVGEPGMSEGRRGLGRGLSALLGEVDAAPAQAPGEQLGGSREAPIEILQRNPDQPRRTFREEDLEDLSNSIREKGVLQPILVRPSPDTAGEYQIVAGERAWRAAQRAGLKTVPIMVRELDDLAVLEIGIIENVQRADLNVLEEALSYKVLMEKFERTQENIAQTIGKSXSHVANXMRLLXLPDEVQSYLVSGELTAXHARAIAAAADPVALAKQIIEGGLSVRETEALARKAPNLSAGKSKGGRPPRVKDTDTQALESDLSSVLGLDVSIDHRGSTGTLTITYATLEQLDDLCNRLTRGI

Variants of: B1
Assay: one-hybrid fitness for binding parS DNA (scaled: cognate 1, non-cognate 0); higher = stronger binding
Details: with parS DNA site
Procedure, shortened: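 Fitness here means the log change in variant-to-wild-type read ratio between plasmids sequenced before and after selection. That scale was set so cognate equals 1 and non-cognate equals 0. The selection was a bacterial one-hybrid screen of Caulobacter ParB libraries, four specificity codons randomised, in E. coli USO carrying a HIS3 reporter with the site 19 bp from the promoter, grown 48 hours at 37°C on M9-minus-histidine with 0.1 mM IPTG and 5 mM 3-AT.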

one-hybrid fitness for binding parS DNA, 0.203:
RMAI

one-hybrid fitness for binding parS DNA, 0.836:
RFWS

one-hybrid fitness for binding parS DNA, 0.455:
RLNN

one-hybrid fitness for binding parS DNA, 0.864:
RHNS

one-hybrid fitness for binding parS DNA, 0.243:
RTAW

one-hybrid fitness for binding parS DNA, 0.304:
RSAM

one-hybrid fitness for binding parS DNA, 0.369:
RHEN

one-hybrid fitness for binding parS DNA, 0.308:
RCDM

one-hybrid fitness for binding parS DNA, 0.442:
RIQY
RLAN

one-hybrid fitness for binding parS DNA, 0.213:
ELMC

one-hybrid fitness for binding parS DNA, 0.46:
RSSY

one-hybrid fitness for binding parS DNA, 0.24:
RCAW

one-hybrid fitness for binding parS DNA, ≤ 0.2:
VTGF
WLVC
THSP
FRHS
QLKL
IDGG
FGKV
YIWR
SLCS
VGYK
SHSN
AEML
LRES
WYIT
IMVG
MSNA
QVIT
CRAT
EIRF
QPVD
VGLI
IYES
EKYG
DSYR
VSIG
SAAE
VIPW
AMHV
RPYS
WRRC
KSAW
GTLT
WRYG
SKSK
VKGM
MCTT
YVGG
NTTY
DHHC
VHHS
RGEW
VKKV
GTPT
ARGA
LYND
GLWS
EHCR
QHCW
TYEN
RNVM
GGNS
GSGL
PQTK
VAGG
PLER
LMWA
PLWI
QTYM
ANRI
RESI
QVLL
KMVW
TTHS
RCNE
SSLQ
NVIR
TVKI
CSQW
RSYD
SRES
YPKG
YPTI
EFET
EQYC
QLGC
RSNL
YLTM
HLQV
TNLS
SYWD
HMAW
WSGG
DFAM
TCNC
YLAL
RPLS
VSSE
VEDG
YTAC
HVYV
PGRR
MVHQ
DCRA
AGHR
WSAS
YPIL
LQGG
KFAG
PWAC
WDNS
GPTG
SPWA
CANS
ADFT
ADSC
PASR
MIHS
FLYK
GREE
HSYK
WTYR
DGYR
KKNY
PWNF
ARPK
TRIY
HIWM
TFTP
LRIC
TTRW
KMRR
EMKG
APSL
NWYY
QSMC
SDVP
VMAI
ATAL
PTKN
AYCY
HAHT
MVQG
PVHH
QAAP
FPQW
SCFF
TDHI
CMGA
PVFR
QKGH
DACA
YRTG
PCKN
WWNS
AVNY
GWTT
VSDR
TGSY
LATG
EPKC
INTP
HLRI
GMPP
YRCY
FHAT
PLIV
MHYG
PEVC
QKFH
RTHQ
HFTS
DRLR
LPYG
NIHG
ARTY
PPNW
ADCE
LVAC
LNDV
FTNL
CEPG
TDAC
LVSN
SWES
SGNR
NYSI
FVRS
SEYS
QYHA
RPFL
AKIF
CNRY
PAAQ
AIEW
KTYG
VRWR
ATFP
ASTL
QTYL
GNVV
GDYR
PKAW
PDHR
AMRG
HDFC
RGFP
AKSQ
SWTN
SKNG
HTAD
YIRY
WGHH
RCAV
TLCG
AVNL
HRLW
GHKR
FPNG
NSCH
YRWN
KTPC
MHDG
LQSY
KVRG
MEHS
ATNM
AVIY
RHNL
RWGL
AYCC
HTEC
PHTL
ALQH
FKSN
QPHD
ETKQ
NKWG
YMGR
QNLW
IETK
KEWR
KDHS
AMIS
DITW
HRKR
QSEP
LYTT
LWWE
PPKK
ERHG
LGKF
CMVC
MLHE
RDVM
MEST
HLPC
VTNY
IKNR
RHNR
TTAM
ISVC
PDLH
PHSW
HSPI
LKVE
MATW
AKNV
HTYP
SNVR
SRPY
RYLR
RLCL
TFSC
PWKA
IEPM
RFQD
AVWC
LIST
WMIP
HNSG
MYNK
ALFS
QKCS
YRMC
RNQP
MLSS
QAQM
WMHS
QFHT
RGTH
PAPL
HAYT
PYWG
QLQN
RSLI
FVQI
LPHG

one-hybrid fitness for binding parS DNA, 0.929:
RIST

one-hybrid fitness for binding parS DNA, 0.989:
RVQS

one-hybrid fitness for binding parS DNA, 0.956:
RMES

one-hybrid fitness for binding parS DNA, 0.567:
RLVA

one-hybrid fitness for binding parS DNA, 0.565:
RAMA

one-hybrid fitness for binding parS DNA, 0.258:
RMSF
